# Test results as given in PubChem BioAssay AID624417 (National Center for Advancing Translational Sciences (NCATS), 2012).
# Values joined by “and” are separate entries in the source; they are usually repeats but may differ in a detail not shown here. Identical values can stand only once. Out of some 410,000 compounds screened, about 6,400 (1.6%) were called active. Inconclusive results, whose numbers are uncertain, are shown with a selection of clear calls. Calls come from the whole dose curve; as a rule, active = well fitted inhibition curve with a large enough effect; inconclusive = small, poorly fitted or top-dose-only effect; inactive = no such curve, though single readings can be large or run the other way. A potency beside an inconclusive call is a rough fit, not a confirmed value.
# Target: Glucagon-like peptide 1 receptor (Homo sapiens) (UniProt P43220)
# Chain of UniProt P43220 (P43220 whole entry, looked up): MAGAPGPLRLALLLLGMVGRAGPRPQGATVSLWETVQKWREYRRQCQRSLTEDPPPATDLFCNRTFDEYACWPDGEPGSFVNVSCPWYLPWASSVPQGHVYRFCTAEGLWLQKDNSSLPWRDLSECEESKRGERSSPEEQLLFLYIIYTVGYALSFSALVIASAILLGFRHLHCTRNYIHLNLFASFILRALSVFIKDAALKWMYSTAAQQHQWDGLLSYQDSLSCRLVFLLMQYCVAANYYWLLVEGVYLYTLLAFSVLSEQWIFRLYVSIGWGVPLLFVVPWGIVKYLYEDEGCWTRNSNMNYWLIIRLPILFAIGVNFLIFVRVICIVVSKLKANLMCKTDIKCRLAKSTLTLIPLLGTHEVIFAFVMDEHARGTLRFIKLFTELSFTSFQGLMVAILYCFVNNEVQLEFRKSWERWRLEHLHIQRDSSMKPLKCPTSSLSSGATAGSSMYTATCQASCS
# Assay: qHTS of GLP-1 Receptor Inverse Agonists (Inhibition Mode); note: nearly all actives have a fitted effect of over 55% in size
# Details: HEK293 GLP-1R CRE-luciferase, luminescence, 24 h, GLP-1R form is constitutively active; series mostly up to 38.3 µM
# In short: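 Seeding at 200 cells/uL, 12 h culture, 24 hr compound treatment, then luciferase reagent and a luminescence read; cells are HEK293 stably expressing a constitutively active GLP-1R plus cAMP-responsive luciferase.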
# Potency is the fitted concentration of half-maximal effect; tags give direction and shape of the fitted curve.
row,SMILES,Potency
1,c1ccc(-c2nnc(CSc3ccc4c(c3)OCCO4)o2)cc1,"inconclusive: 14.1 µM [inhibitor, single point]"
2,Cc1ccc(/C=N/n2c(-c3cccnc3)n[nH]c2=S)o1,inactive
3,Cc1cccc(C2=NN(c3ccccc3)[C@@H](C(=O)N3CCOC3=O)[C@@H]2c2ccc(Cl)cc2)c1,"inconclusive: 28.2 µM [inhibitor, single point]"
4,CC(NC(=O)Cc1ccsc1)c1ccc(Cl)cc1Cl (centres undefined),"inconclusive: 10 µM [inhibitor, single point]"
5,Cc1cccc(Cn2c(C(C)(C)C)cc3cccnc32)c1,"inconclusive: 22.4 µM [inhibitor, single point]"
6,O=C(NCc1ccccn1)c1cn(-c2ccccc2)nc1-c1ccc(Cl)cc1,"inconclusive: 10 µM [inhibitor, partial curve, poor fit]"
7,Cc1ccc2oc(=O)c3cnn(CC(=O)N(CCN(C)C)Cc4ccco4)c3c2c1,"inconclusive: 28.2 µM [inhibitor, single point]"
8,CC(=O)c1c(CSc2ccccc2)oc2ccc(O)c(CN(C)C)c12,"inconclusive: 3.98 µM [inhibitor, partial curve, poor fit]"
9,COc1ccc(-c2csc(Nc3ccc(C)cn3)n2)cc1,"inconclusive: 5.01 µM [inhibitor, full curve]"
10,C=CCNCc1ccc(C(=O)NCCCCCCC)cc1[N+](=O)[O-],"inconclusive: 28.2 µM [inhibitor, single point]"
11,CCCNC(=O)c1cccc(Cn2nc(C)c(Br)c2C)c1,"inconclusive: 1 µM [inhibitor, full curve, poor fit]"
12,CCOC(=O)C1CCCN(S(=O)(=O)c2ccc(F)c(C(=O)Nc3ccc(F)c(F)c3)c2)C1 (centres undefined),"inconclusive: 28.2 µM [inhibitor, single point] and inconclusive: 15.8 µM [inhibitor, single point]"
13,CCOC(=O)N1CCN(S(=O)(=O)c2ccc(C(=O)NNc3nc4c(C)cc(C)cc4s3)cc2)CC1,"inconclusive: 28.2 µM [inhibitor, single point]"
14,O=C(CN(Cc1ccco1)C(=O)c1ccc(F)cc1)Nc1ccccc1Br,"inconclusive: 10 µM [inhibitor, partial curve]"
15,CCCCOC(=O)c1ccc(NC(c2ccc(C)cc2)P(=O)(OC)OC)cc1 (centres undefined),"inconclusive: 28.2 µM [inhibitor, single point]"
16,CC1Sc2ccc(S(=O)(=O)CCC(=O)Nc3ccc(C(C)C)cc3)cc2NC1=O (centres undefined),"inconclusive: 4.47 µM [inhibitor, full curve, poor fit]"
17,Cc1cc(N2CCN(c3ccccc3)CC2)n2cc(-c3ccccc3)nc2n1,"inconclusive: 28.2 µM [inhibitor, single point]"
18,CCOc1ccccc1N1CCN(c2nc3ccccc3nc2C(C#N)C(=O)OC(C)C)CC1 (centres undefined),active: 5.01 µM
19,NS(=O)(=O)c1ccc(NC(=S)NC(=O)c2ccco2)cc1,inactive
20,CCN(CC)c1cc(C)c2cc(NC(=O)c3cccc(OC)c3)ccc2n1,active: 10 µM
21,Cc1ccccc1CN1CCN(S(=O)(=O)c2ccc(F)cc2)CC1,"inconclusive: 11.2 µM [inhibitor, single point]"
22,Cc1cccc(SCc2noc(C(=O)NC(C)C)c2C(=O)O)c1,"inconclusive: 28.2 µM [inhibitor, single point]"

row,SMILES,Potency
1,Cc1ccccc1S(=O)(=O)c1c(C)cc(C)n(CC(C)C)c1=O,"inconclusive: 12.6 µM [inhibitor, partial curve, poor fit]"
2,CS(=O)(=O)c1ccc(Sc2nc3ccccc3[nH]2)c([N+](=O)[O-])c1,inactive
3,O=C(NCCOc1cccc(Oc2ccccc2)c1)c1cc(-n2cnnc2)ccc1Cl,inactive
4,Cc1ccc(S(=O)(=O)N(CC(O)Cn2c3ccccc3c3ccccc32)c2cccc(C(N)=O)c2)cc1 (centres undefined),"inconclusive: 28.2 µM [inhibitor, single point]"
5,CCCCN(CC)CCCNC(=O)c1sc2nc(C)cc(C)c2c1-n1cccc1,"inconclusive: 10 µM [inhibitor, partial curve, poor fit]"
6,O=c1[nH]c(S)nc2sc3c(c12)CCCC3,inactive
7,COc1ccc(NC(=O)CC23CC4CC(CC(C4)C2)C3)cn1,"inconclusive: 6.31 µM [inhibitor, partial curve, poor fit]"
8,C#Cc1ccc([C@@H]2C=C(C(=O)Nc3ccccc3)O[C@H](OCC)[C@H]2CCCO)cc1,"inconclusive: 28.2 µM [inhibitor, single point]"
9,O=[N+]([O-])c1ccc(Cl)c2c1C1C=CCC1C(c1ccccn1)N2 (centres undefined),inactive
10,CC(=O)c1cccc(N(C(=O)c2ccco2)C(C(=O)NC2CCCC2)c2ccccc2F)c1 (centres undefined),"inconclusive: 3.98 µM [inhibitor, full curve]"
11,CCN1CCN(C(=S)c2ccc(Cl)c(Cl)c2)CC1,inactive
12,COc1ccc(N2CC(NC(=O)c3cccc4ccccc34)CC2=O)cc1OC (centres undefined),inactive
13,COc1ccc(NC(=O)CSc2nc(-c3cccs3)cc(C(F)(F)F)n2)cc1OC,inactive
14,COC(=O)c1ccc2c(c1)C(=O)/C(=C/c1ccc(C)cc1)O2,inactive
15,CCOCc1nnc(NC(=O)COc2ccc3c(c2)OCO3)s1,"inconclusive: 7.94 µM [inhibitor, partial curve, poor fit]"
16,Cc1ccc(C(C)C)c(OCC(=O)NC(=S)Nc2ccccc2N2CCOCC2)c1,"inconclusive: 2.24 µM [inhibitor, full curve, poor fit]"
17,O=C(CSc1nc2ccccc2n1CCc1ccccc1)N1CCOCC1,"inconclusive: 28.2 µM [inhibitor, single point]"
18,C=CCn1c(Cc2cccs2)nnc1SCC(=O)c1cccc(Br)c1,active: 5.62 µM
19,CCOc1ccc(CNCc2c(C(=O)O)n(Cc3ccccc3F)c3cc(OC)ccc23)cc1,inactive
20,O=C(NNC(=O)C(c1ccccc1)c1ccccc1)c1ccccn1,"inconclusive: 11.2 µM [inhibitor, partial curve, poor fit]"
21,Cc1ccc(CN2CCC(n3nccc3NC(=O)CCOc3ccccc3)CC2)cc1C,"inconclusive: 10 µM [inhibitor, partial curve, poor fit]"
22,COCCNC(=S)Nc1ccc2nc(N3CCN(C)CC3)cc(C)c2c1,"inconclusive: 3.16 µM [inhibitor, partial curve]"

row,SMILES,Potency
1,CCN(CC)CCn1c2c(c(SCC(=O)Nc3cc(C)ccc3C)nc1=O)CCC2,"inconclusive: 5.62 µM [inhibitor, partial curve, poor fit]"
2,COC(=O)C(NC(=O)CC(C)C)(Nc1nc2c(s1)CCCC2)C(F)(F)F (centres undefined),"inconclusive: 28.2 µM [inhibitor, single point]"
3,c1ccc(-c2n[nH]c3ccccc23)cc1,"inconclusive: 22.4 µM [inhibitor, single point]"
4,Nc1c(C(=O)Nc2ccc3c(c2)OCCO3)nnn1Cc1ccccc1Cl,"inconclusive: 10 µM [inhibitor, partial curve]"
5,COc1ccccc1NS(=O)(=O)c1cc(NC(=O)CNC(=O)c2cc(C)cc(C)c2)ccc1C,"inconclusive: 28.2 µM [inhibitor, single point]"
6,Cc1ccnc(NC(=O)c2cccc(S(=O)(=O)N3CCN(c4ccccc4)CC3)c2)c1,"inconclusive: 10 µM [inhibitor, single point]"
7,COc1ccc(-c2cc(C(=O)Nc3nc4ccccc4s3)c3ccccc3n2)cc1OC,"inconclusive: 1 µM [inhibitor, full curve, poor fit]"
8,O=C(COc1ncnc2ccccc12)N1CCN(S(=O)(=O)c2ccc(Cl)cc2)CC1,"inconclusive: 4.47 µM [inhibitor, full curve, poor fit]"
9,CCc1ccc(CNC(=O)C2CCCN(c3nc4ccccc4o3)C2)cc1 (centres undefined),"inconclusive: 10 µM [inhibitor, partial curve, poor fit]"
10,Cc1ccc(C)c(-c2[nH]ncc2CN2CCCC(CO)(Cc3ccccc3C)C2)c1 (centres undefined),active: 10 µM
11,CCOc1ccc(-c2nc(-c3ccc(OC)cc3)no2)cc1OCC,inactive
12,Cc1cc(C)c(NC(=O)Cn2c(=O)n(CC(=O)NCc3ccccc3Cl)c(=O)c3sccc32)c(C)c1,inactive
13,CN(Cc1ccc2c(c1)OCCO2)C(=O)CSc1ncnc2sccc12,inactive
14,COc1ccccc1C(NC(=O)C1CCN(CCOc2ccc(Cl)cc2)CC1)c1ccccn1 (centres undefined),"inconclusive: 11.2 µM [inhibitor, partial curve, poor fit]"
15,CSc1cccc(NC(=O)CCCOc2ccccc2)c1,"inconclusive: 20 µM [inhibitor, single point]"
16,Cc1ccccc1C(=O)Nc1ccc(-c2nc3ccc(C(=O)c4ccccc4)cc3[nH]2)cc1,"inconclusive: 2.51 µM [inhibitor, partial curve, poor fit]"
17,CCOc1ccc(NC(=O)CN(C)CC(=O)Nc2cccc(Cl)c2C)cc1OCC,"inconclusive: 11.2 µM [inhibitor, partial curve, poor fit]"
18,Cc1cc2oc(C(=O)Nc3c(C(=O)Nc4ccccc4)oc4ccccc34)cc(=O)c2cc1C,inactive
19,CC(C)(Oc1ccc(Cl)cc1)C(=O)NC1=NN(c2ccccc2)C(=O)C1,"inconclusive: 31.6 µM [inhibitor, single point]"
20,CCc1ccc2nc(N(CCCN(C)C)C(=O)c3ccc(S(=O)(=O)N4CCCc5ccccc54)cc3)sc2c1,"inconclusive: 1.78 µM [inhibitor, partial curve, poor fit]"
